# Assay results: PMC4336329 (PLoS ONE, 2015)
# The whole screen tested about 310,000 compounds, of which about 14,000 (4.5%) showed an effect of 50% or more. The effect is printed as a negative number. Some of the results follow.
# Molecular target: human ether-à-go-go-related gene (hERG) potassium channel (human, UniProt Q12809)
# Assay: primary screen, population patch clamp on CHO cells stably expressing hERG
# 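Note: peak tail current of the secondary pulse compared with the same well before compound.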
# human ether-à-go-go-related gene (hERG) potassium channel, sequence (Q12809 whole entry, looked up): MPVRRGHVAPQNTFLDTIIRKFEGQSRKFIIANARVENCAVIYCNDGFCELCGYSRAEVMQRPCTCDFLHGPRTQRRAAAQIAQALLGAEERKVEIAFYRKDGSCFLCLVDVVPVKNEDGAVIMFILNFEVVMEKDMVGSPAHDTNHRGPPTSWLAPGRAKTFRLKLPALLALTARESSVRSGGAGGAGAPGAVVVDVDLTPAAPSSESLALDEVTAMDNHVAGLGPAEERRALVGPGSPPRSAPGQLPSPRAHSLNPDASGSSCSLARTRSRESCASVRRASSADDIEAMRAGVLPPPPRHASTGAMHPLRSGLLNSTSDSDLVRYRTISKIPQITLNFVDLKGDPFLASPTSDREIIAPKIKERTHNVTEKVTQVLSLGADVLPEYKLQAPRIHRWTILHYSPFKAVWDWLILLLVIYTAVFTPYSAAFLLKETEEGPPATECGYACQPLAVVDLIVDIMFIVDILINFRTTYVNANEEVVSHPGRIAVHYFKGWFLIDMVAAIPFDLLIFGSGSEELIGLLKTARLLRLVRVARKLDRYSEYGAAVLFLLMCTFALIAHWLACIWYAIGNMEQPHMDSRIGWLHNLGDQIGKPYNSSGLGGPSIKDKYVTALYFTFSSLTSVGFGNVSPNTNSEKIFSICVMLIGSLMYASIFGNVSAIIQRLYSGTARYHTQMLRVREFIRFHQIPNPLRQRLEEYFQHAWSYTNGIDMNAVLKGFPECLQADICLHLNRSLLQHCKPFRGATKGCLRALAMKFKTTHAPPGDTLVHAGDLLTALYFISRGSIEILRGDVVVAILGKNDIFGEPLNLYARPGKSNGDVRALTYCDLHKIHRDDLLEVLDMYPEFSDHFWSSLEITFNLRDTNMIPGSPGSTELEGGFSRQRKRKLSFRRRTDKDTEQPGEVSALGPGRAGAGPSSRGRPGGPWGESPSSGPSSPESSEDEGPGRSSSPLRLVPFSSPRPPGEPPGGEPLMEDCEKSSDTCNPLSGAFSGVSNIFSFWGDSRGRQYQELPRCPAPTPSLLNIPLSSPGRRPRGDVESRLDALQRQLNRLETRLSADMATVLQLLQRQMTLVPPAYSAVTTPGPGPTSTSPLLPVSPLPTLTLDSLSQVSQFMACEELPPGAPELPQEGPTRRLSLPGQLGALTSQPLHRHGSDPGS
row,SMILES,"hERG current change (%, negative = inhibition) at 10uM [%]"
1,O=C(CNC(=O)c1ccccc1)Nc1cccc(C(F)(F)F)c1,-3.37
2,COc1cc(C(=O)N2CCN(C(=O)c3cc(-c4ccc(Br)cc4)n[nH]3)CC2)cc(OC)c1OC,-73.3
3,CC1CCCN(CC(O)COCC2COc3ccccc3O2)C1.Cl (stereo not shown),-28.2
4,CC(OC(=O)CNC(=O)c1ccccc1F)C(=O)Nc1nc(-c2ccccc2)cs1 (stereo not shown),-11.6
5,CN(C)C(=O)CSc1nnc([C@H](Cc2c[nH]c3ccccc23)NC(=O)OC(C)(C)C)o1,-4.24
6,COc1ccc(C2CC3(CC(C)(C)NC(=S)N3)Oc3cc(O)cc(C)c32)cc1 (stereo not shown),14.6
7,O=C(NCc1ccc2c(c1)OCO2)Nc1cccc(Cl)c1,11.7
8,CCS(=O)CC(=O)Nc1c(-c2ccccc2)oc2ccccc2c1=O (stereo not shown),11.7
9,CCCCc1c(C)nc2ccccc2c1SCCC#N,-50.6
10,O=C(CSc1nnc(COc2ccccc2)n1-c1ccccc1)c1cccs1,-6.35
11,Cc1cc(C)cc(N2C(=O)NC(=O)/C(=C\c3cccn3-c3ccc(Cl)cc3)C2=O)c1,9.97
12,O=C(Cn1ncc(N2CCCC2)c(Cl)c1=O)c1ccc(Cl)cc1,-21.2
13,COc1ccccc1S(=O)(=O)Nc1cccc(-c2nnc3n2CCCCC3)c1,5.99
14,Cc1cccc(C)c1NC(=O)CCc1nnc2ccc(N3CCCC3)nn12,10.3
15,O=C1CN(c2nc(-c3cccs3)nc3sc4c(c23)CCCC4)CCN1,0.456
16,CCc1ccc(OCCNC(=O)c2ccc(S(=O)(=O)N(C)C)cc2)cc1,-15.9
17,CC(C)(C)n1ncc2c(=O)n(CC(=O)N3CCCC3)cnc21,9.77
18,Cc1ccc(S(=O)(=O)N2CCOCC2)cc1C(=O)OCC(=O)Nc1ccc2[nH]c(=O)[nH]c2c1,3.54
19,COC(=O)Cc1cc(=O)[nH]c(/N=C(\N)Nc2ccccc2)n1,17.6
20,O=C(NCc1ccc2c(c1)OCO2)C1CC(=O)N(C2CCCCCCC2)C1 (stereo not shown),-0.78
21,CCc1nnc(NC(=O)CCN(c2cc(C)cc(C)c2)S(=O)(=O)c2ccc(Cl)cc2)s1,17.7
22,CC1=CC(=O)OC1Cc1ccncc1 (stereo not shown),11.3

row,SMILES,"hERG current change (%, negative = inhibition) at 10uM [%]"
1,CCC(C)c1ccc(C(CC)NC(=O)C2CCCO2)cc1 (stereo not shown),16.4
2,COc1ccc(NCC(O)Cn2cnc3c2c(=O)n(C)c(=O)n3C)cc1 (stereo not shown),14.7
3,CCCCCCCOC(=O)c1ccc(OC(=O)c2cccnc2)cc1,14.1
4,COc1ccc(-c2nnc3n(CCc4ccccc4)c(=O)c4ccccc4n23)c(OC)c1,4.4
5,COc1cccc(CNC(=O)CCNS(=O)(=O)c2cccc3nsnc23)c1,-3.16
6,Fc1ccccc1N1CCN(Cc2c(F)cccc2F)CC1,7.89
7,Cc1ccc(CC(=O)N/N=C/c2ccc3c(c2)OCO3)cc1,5.13
8,O=C(NC1CCCCC1)C(c1ccccc1)N(C(=O)c1csnn1)C1CCCC1 (stereo not shown),-0.211
9,O=S(=O)(Nc1cccc(Cl)c1)c1ccc(-n2cccn2)cc1,-0.875
10,CC1(C)Cc2c(C#N)c(N3CCNCC3)nc(-c3ccco3)c2CS1,-21.3
11,CCNc1c(NS(=O)(=O)c2ccc(F)c(Cl)c2)c(=O)oc2ccccc12,-48.1
12,CN1CCN(C(=O)c2cc(Cl)ccc2Cl)CC1,2.43
13,COc1cc(CSc2nnnn2-c2ccc(C)cc2)cc(OC)c1OC,8.81
14,CCCn1nc(C(=O)OCc2nc(N)nc(Nc3ccccc3C)n2)c2ccccc2c1=O,-25.1
15,COc1cccc(NC(=S)N(CCCN2CCOCC2)C(C)c2cc3cccc(OC)c3o2)c1 (stereo not shown),6.32
16,O=C(c1cc(-n2cnnc2)ccc1Cl)N1CCN(c2nc(-c3ccccc3)cs2)CC1,-21.3
17,O=S(=O)(NCc1cccnc1)c1ccc(Cl)s1,6.91
18,CC(=O)N1c2ccc(S(=O)(=O)NCC3CCC(C(=O)NCc4ccccc4)CC3)cc2CC1C (stereo not shown),23.7
19,O=c1c2ccccc2nc(SCCN2CCOCC2)n1CCc1ccccc1,-15.4
20,CC1(C)c2[nH]c3ccccc3c2C[C@H]2C(=O)N(Cc3cccc(F)c3)C(=O)N21,2.06
21,O=C(c1cc(C(=O)N2CCOCC2)c2nc3ccccc3n2c1)c1ccccc1O,-6.65
22,Cc1nn(C)cc1CNC(=O)C1CCC(=O)N(Cc2cccc(C(F)(F)F)c2)C1 (stereo not shown),13

row,SMILES,"hERG current change (%, negative = inhibition) at 10uM [%]"
1,C/C(=N\n1c(C)nc2ccccc2c1=O)c1ccc(C)o1,11.8
2,CCc1nn(CCCC(=O)Nc2ccc(C)cc2C)c(=O)c2cc3occc3n12,-13.3
3,COC(=O)c1ccccc1S(=O)(=O)N1CCn2cccc2C1C (stereo not shown),2.18
4,COc1ccc(C)cc1S(=O)(=O)N1CCCC(C(=O)N2CCN(c3ccccc3)CC2)C1 (stereo not shown),-17.5
5,Cc1ccc(NC(=S)NC(=O)CC2CC(C)(C)OC2=O)cc1 (stereo not shown),0.394
6,O=C(NCCOc1ccccc1)c1cc(S(=O)(=O)N2CCOCC2)ccc1F,0.542
7,N#Cc1ccsc1NC(=O)c1cccc([N+](=O)[O-])c1,17.6
8,N/C(=N\OC(=O)CC1CCCCC1)c1cccc([N+](=O)[O-])c1,-6.21
9,O=C(Nc1nc(-c2cc(Cl)sc2Cl)cs1)c1ccc(Br)s1,-6.05
10,COc1cc2c(cc1OC)CN(C(=S)Nc1ccc(C)cc1C)CC2,-5.67
11,CC1CCC(NC(=O)c2cc3c(s2)CCCC3)CC1 (stereo not shown),1.57
12,O=C(C1CCN(c2ncnc3c2sc2cccc(F)c23)CC1)N1CCCC1,-19.7
13,CC(C)NC(=O)/C(C#N)=C/c1cccc(NC(=O)c2ccccc2Cl)c1,0.548
14,O=C(NCCOc1cccc(Oc2ccccc2)c1)c1cc(-n2cnnc2)ccc1Cl,-26.9
15,O=C1NC(=O)N(c2ccc(F)cc2)C(=O)/C1=C/c1ccsc1,5.25
16,O=[N+]([O-])c1ccc(OCC(O)CN(CCO)CCO)cc1 (stereo not shown),-54.8
17,Cc1ccc(Cn2nnc3c(=O)[nH]c(C4CCN(S(=O)(=O)c5ccccc5F)CC4)nc32)cc1,-19
18,COC(=O)Cc1c(C)nc2nc(NCc3ccc(Cl)cc3)[nH]n2c1=O,6.18
19,CCn1c(SCC(=O)Nc2oc(-c3ccccc3)c(-c3ccccc3)c2C#N)nnc1-c1cc(OC)cc(OC)c1,-5.33
20,COc1cc(CCC(=O)OCC(=O)NC2CCCC(C)C2C)cc(OC)c1OC (stereo not shown),3.08
21,O=C(c1cnn(C(=O)COc2ccccc2F)c1)c1cc(F)ccc1O,12.5
22,CCCCSCCCNC(=O)C1CCC(CNS(=O)(=O)c2ccccc2)CC1 (stereo not shown),0.585

row,SMILES,"hERG current change (%, negative = inhibition) at 10uM [%]"
1,Br.O=[N+]([O-])c1ccc(CSC2=NCCN2)cc1,-15.3
2,COc1ccccc1CNC(=O)COC(=O)c1ccc(C)c(S(=O)(=O)N2CCCCC2)c1,-42.7
3,Cc1ccc2nc(N3CCOCC3)c(C=O)cc2c1,3.06
4,CCP(=O)(c1cccc([N+](=O)[O-])c1)c1cccc([N+](=O)[O-])c1,-17.2
5,COc1ccc(C(C)=O)c2c1OCCO2,-3.35
6,COc1ccc(CCNC(=O)c2c(C)nc3ccccn23)cc1,-4.75
7,CC(=O)Nc1ccc(N2CCN(C(C)=O)CC2)cc1,17.4
8,CC[C@H](C)[C@@H](NC(=O)O[C@@H]1C(=O)c2cc(OC)ccc2O[C@H]1c1ccc(OC)c(Br)c1)C(=O)OC,-1.62
9,Cc1cccc(-n2c(N)c(C(=O)NCCN3CCOCC3)c3nc4ccccc4nc32)c1,-57.1
10,CCOC(=O)C1=C(C)N=c2s/c(=C/c3cccc([N+](=O)[O-])c3O)c(=O)n2C1c1ccccc1 (stereo not shown),-20.4
11,O=C(Nn1c(C2CCCCC2)nc2ccccc2c1=O)c1ccc([N+](=O)[O-])cc1,-4.12
12,CC(C)C1Oc2ccccc2N(CC(=O)N(Cc2ccccn2)C2CC2)C1=O (stereo not shown),-13.6
13,CC(=O)N[C@@H](C)C(=O)N1CCC(n2nccc2NC(=O)CCCc2ccccc2)CC1,-2.4
14,CSCCC(NC(=O)C1CCC(C)CC1)C(=O)N1CCN(c2ccccn2)CC1 (stereo not shown),-45.5
15,COc1cc(N2CCCC2)c(OC)cc1/C=C1/NC(=S)NC1=O,2.81
16,O=C(CSc1nc(-c2cccs2)cc(C(F)(F)F)n1)NCCCN1CCOCC1,1.17
17,Cc1ccc(-c2nc3c(Cl)cc(Cl)cc3c(=O)n2O)cc1,16.1
18,O=C(O)c1cc([N+](=O)[O-])ccc1NCc1cccnc1,11.9
19,CCOc1ccc(-c2noc(CCCC(=O)NC3CCCCC3)n2)cc1OC,-37.1
